{"source": "PubChem BioAssay (NCI)", "system": "NCI-H322M lung", "assay": "growth of human tumour cells (NCI), 48 h", "note": "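Step 1: Grow cells in 96-well plates. Step 2: Expose to compound for 48 hours at 5 concentrations. Step 3: Interpolate endpoints linearly; if unreached, use highest concentration. GI50: concentration for 50% inhibition of growth. TGI: total growth inhibition.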"}
{"molecule": "Cc1cn(-c2cc(NC(=O)c3cncc(C#Cc4cnc5ccc(O[C@@H]6CCOC6)nn45)c3)cc(C(F)(F)F)c2)cn1", "values": [{"measurement": "GI50", "result": 277, "unit": "nM"}, {"measurement": "TGI", "result": 1030, "unit": "nM"}]}
{"molecule": "Nc1ccccc1NC(=O)c1ccc(NC(=O)C/C=C/c2cccnc2)cn1", "values": [{"measurement": "GI50", "result": 1870, "unit": "nM"}, {"measurement": "TGI", "result": "> 50000", "unit": "nM"}]}
{"molecule": "C#C[C@]1(O)CC[C@H]2[C@@H]3CC=C4c5sc(N6CCN(C)CC6)nc5CC[C@]4(C)[C@H]3CC[C@@]21C", "values": [{"measurement": "GI50", "result": 1860, "unit": "nM"}, {"measurement": "TGI", "result": 3810, "unit": "nM"}]}
